Reference: patent US20230035617A1

Biological target: Tissue Factor Pathway Inhibitor (TFPI), P10646
Assay: cell-based or functional assay

B1: mAb-TFPI-106 (anti-TFPI antibody) (antibody, human IgG1, lambda)
heavy: [about 100 residues not shown]LGATSLSAFDIWGQGTMVTVSSASTKGPSVFPLAPSSKSTSGGTAALGCLVKDYFPEPVTVSWNSGALTSGVHTFPAVLQSSGLYSLSSVVTVPSSSLGTQTYICNVNHKPSNTKVDKKVEPKSCDKTHTCPPCPAPEAAGAPSVFLFPPKPKDTLMISRTPEVTCVVVDVSHEDPEVKFNWYVDGVEVHNAKTKPREEQYNSTYRVVSVLTVLHQDWLNGKEYKCKVSNKALPAPIEKTISKAKGQPREPQVYTLPPSREEMTKNQVSLTCLVKGFYPSDIAVEWESNGQPENNYKTTPPVLDSDGSFFLYSKLTVDKSRWQQGNVFSCSVMHEALHNHYTQKSLSLSPG
light: QSVLTQPPSVSGAPGQRVTISCTGSSSNIGAGYDVHWYQQLPGTAPKLLIYGNSNRPSGVPDRFSGSKSGTSASLAITGLQAEDEADYYCQSYDSSLSGSGVFGGGTKLTVLGQPKAAPSVTLFPPSSEELQANKATLVCLISDFYPGAVTVAWKADSSPVKAGVETTTPSKQSNNKYAASSYLSLTPEQWKSHRSYSCQVTHEGSTVEKTVAPTECS
% Relative Potency by inhibition assay; formulation A (Target); 0 months: 108%
% Relative Potency by inhibition assay; formulation A (Target); 5° C., 6 months: 104%
% Relative Potency by inhibition assay; formulation A (Target); 25° C., 6 months: 97%
% Relative Potency by inhibition assay; formulation A (Target); 40° C., 6 months: 86%
% Relative Potency by inhibition assay; formulation B (Low/High); 0 months: 102%
% Relative Potency by inhibition assay; formulation B (Low/High); 5° C., 6 months: 110%
% Relative Potency by inhibition assay; formulation B (Low/High); 25° C., 6 months: 106%
% Relative Potency by inhibition assay; formulation B (Low/High); 40° C., 6 months: 97%
% Relative Potency by inhibition assay; formulation C (High/Low); 0 months: 101%
% Relative Potency by inhibition assay; formulation C (High/Low); 5° C., 6 months: 110%
% Relative Potency by inhibition assay; formulation C (High/Low); 25° C., 6 months: 109%
% Relative Potency by inhibition assay; formulation C (High/Low); 40° C., 6 months: 86%
% Relative Potency by inhibition assay; formulation D (Low/Low); 0 months: 101%
% Relative Potency by inhibition assay; formulation D (Low/Low); 5° C., 6 months: 108%
% Relative Potency by inhibition assay; formulation D (Low/Low); 25° C., 6 months: 90%
% Relative Potency by inhibition assay; formulation D (Low/Low); 40° C., 6 months: 88%
% Relative Potency by inhibition assay; formulation E (High/High); 0 months: 102%
% Relative Potency by inhibition assay; formulation E (High/High); 5° C., 6 months: 101%
% Relative Potency by inhibition assay; formulation E (High/High); 25° C., 6 months: 111%
% Relative Potency by inhibition assay; formulation E (High/High); 40° C., 6 months: 93%
% Relative Potency by inhibition assay; formulation F (Target, No PS80); 0 months: 99%
% Relative Potency by inhibition assay; formulation F (Target, No PS80); 5° C., 6 months: 99%
% Relative Potency by inhibition assay; formulation F (Target, No PS80); 25° C., 6 months: 114%
% Relative Potency by inhibition assay; formulation F (Target, No PS80); 40° C., 6 months: 93%
Relative Potency (%) by inhibition assay; 150 mg/mL, 1 mL PFS; 25° C./60% RH; 0 months: 106%
Relative Potency (%) by inhibition assay; 150 mg/mL, 1 mL PFS; 25° C./60% RH; 1 month: 122%
Relative Potency (%) by inhibition assay; 150 mg/mL, 1 mL PFS; 25° C./60% RH; 3 months: 109%
Relative Potency (%) by inhibition assay; 150 mg/mL, 1 mL PFS; 25° C./60% RH; 6 months: 98%
Relative Potency (%) by inhibition assay; 150 mg/mL, 1 mL PFS; 25° C./60% RH; 12 months: 99%
Relative Potency (%) by inhibition assay; 150 mg/mL, 1 mL PFS; 40° C./75% RH; 0 months: 106%
Relative Potency (%) by inhibition assay; 150 mg/mL, 1 mL PFS; 40° C./75% RH; 1 month: 106%
Relative Potency (%) by inhibition assay; 150 mg/mL, 1 mL PFS; 40° C./75% RH; 3 months: 96%
Relative Potency (%) by inhibition assay; 150 mg/mL, 2.25 mL PFS; 25° C./60% RH; 0 months: 108%
Relative Potency (%) by inhibition assay; 150 mg/mL, 2.25 mL PFS; 25° C./60% RH; 1 month: 110%
Relative Potency (%) by inhibition assay; 150 mg/mL, 2.25 mL PFS; 25° C./60% RH; 3 months: 110%
Relative Potency (%) by inhibition assay; 150 mg/mL, 2.25 mL PFS; 25° C./60% RH; 6 months: 100%
Relative Potency (%) by inhibition assay; 150 mg/mL, 2.25 mL PFS; 25° C./60% RH; 12 months: 87%
Relative Potency (%) by inhibition assay; 150 mg/mL, 2.25 mL PFS; 40° C./75% RH; 0 months: 108%
Relative Potency (%) by inhibition assay; 150 mg/mL, 2.25 mL PFS; 40° C./75% RH; 1 month: 106%
Relative Potency (%) by inhibition assay; 150 mg/mL, 2.25 mL PFS; 40° C./75% RH; 3 months: 95%
Relative Potency (%) by inhibition assay; 150 mg/mL, Vial; 25° C./60% RH; 0 months: 98%
Relative Potency (%) by inhibition assay; 150 mg/mL, Vial; 25° C./60% RH; 1 month: 96%
Relative Potency (%) by inhibition assay; 150 mg/mL, Vial; 25° C./60% RH; 3 months: 95%
Relative Potency (%) by inhibition assay; 150 mg/mL, Vial; 25° C./60% RH; 6 months: 96%
Relative Potency (%) by inhibition assay; 150 mg/mL, Vial; 25° C./60% RH; 12 months: 91%
Relative Potency (%) by inhibition assay; 150 mg/mL, Vial; 25° C./60% RH; 24 months: 97%
Relative Potency (%) by inhibition assay; 150 mg/mL, Vial; 40° C./75% RH; 0 months: 98%
Relative Potency (%) by inhibition assay; 150 mg/mL, Vial; 40° C./75% RH; 12 months: 83%
